Measurements reported in PubChem BioAssay AID1508623 (National Center for Advancing Translational Sciences (NCATS), 2021).
Among all 48,000 compounds or so, about 450 (0.94%) were called active. Another 19% or so got no clear call; they are omitted. The call rests on the fitted dose curve; in most records, active means well fitted inhibition curve with a large enough effect; inconclusive means small, poorly fitted or top-dose-only effect; inactive means no such curve, though single readings can be large or run the other way. This is one part of the list.

Assay: Primary qHTS for Identification of Small Molecule Inhibitors of Huntingtin Promoter Activity; further: nearly all actives have a fitted effect of over 50% in size
Details: HEK293 HTT promoter firefly luciferase reporter (activity 0% = vehicle and -100% = no light), 24 h; series mostly up to 57.5 µM; activity change, negative = inhibition: at the top concentration
In short: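 Luminescence was read after Dual-Glo reagent and a 10 min room-temperature incubation. Values were normalized to vehicle (0% activity) and zero RLU (-100% activity). Reporter HEK293 cells had been exposed to compounds (up to 57.5 uM final) for 24 h.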

Activity change, negative = inhibition, inactive:
COc1ccc(S(=O)(=O)NCc2ccc(C(=O)NCc3ccccc3)cc2)cc1 -14.7%
CC(C)c1ccc(NC(=O)C2(C)Cc3ccccc3C(=O)O2)cc1 (configuration not stated) 25.4%
CN1c2cc(O)c(N=NC(N)=O)cc2CC1S(=O)(=O)O (configuration not stated) 6.04%
Cc1ccc2c(c1)-c1c(cnn1CC(=O)N1CCN(c3cc(Cl)ccc3C)CC1)CO2 -15.5%
CC(C)C(NS(=O)(=O)c1cccc2cccnc12)C(=O)Nc1ccc(OC(F)(F)F)cc1 (configuration not stated) -21.4%
O=C(c1ccccc1)c1ccc2nc(Nc3cc(Cl)ccc3O)c3nncn3c2c1 -11.2%
COc1cccc(CNC(=O)c2cc(-c3cccc(OC)c3)n[nH]2)c1 48%
CCOc1ccc(NS(=O)(=O)c2ccc(N)cc2)nn1 11%
Cc1ccc(N2CCN(C(=O)CCc3c(C)nc4c(c3C)c(=O)n(C)c(=O)n4C)CC2)c(C)c1 -13.9%
O=C(CCn1cnc2ccccc2c1=O)NCc1ccccc1 1.4%
CCCSCCCNC(=O)CN1C(=O)COc2ccc(S(=O)(=O)N3CCC(C)CC3)cc21 -19.3%
CN1C(=O)Cc2cc(S(=O)(=O)CCC(=O)Nc3ccccc3)ccc21 -15.7%
CCN(CC)CCCNC(=O)Cn1nc(N2CCN(c3ccccc3OC)CC2)ccc1=O -4.66%
COc1cc(OC)c(N(C)C(=O)c2nn(C)c3c2CSc2ccccc2-3)cc1Cl -6.73%
CCOc1ccccc1NC(=O)c1sc(-n2nc(C)c(CCC(C)C)c2C)nc1C -15.8%
Cc1ccc(Cl)cc1N1CCN(C(=O)c2ccc3c(c2)N(Cc2ccccc2F)C(=O)c2ccccc2S3(=O)=O)CC1 -10.7%
CCCCOc1ccc(S(=O)(=O)N2CCN(c3ccccc3OCC)CC2)cc1 1.1%
COc1ccc(Cl)cc1NC(=O)CN(C)S(=O)(=O)c1ccc(Br)s1 -23%
CCC1CCCCN1CCCNC(=O)CN1C(=O)CSc2ccc(S(=O)(=O)N3CCC(C)CC3)cc21 (configuration not stated) -15.8%
Cc1cc(C)c2oc(-c3cccc(NC(=O)c4ccco4)c3)nc2c1 -0.917%
COCCCNC(=O)CCC(=O)N1Cc2ccccc2Oc2ncccc21 17.3%
Cc1cc2c(c3oc(=O)c4ccccc4c13)CN(Cc1ccc(F)cc1)CO2 -3.25%
O=C(Nc1cccc(Cl)c1)Nc1ccccc1OCc1cc(=O)n2ccccc2n1 8.33%
C#CCN[C@@H]1CCc2ccccc21
C1COC(NC(C2CC2)C2CC2)=N1
Cc1ccc(CNC(=O)Cn2ccn(-c3ccc(C)c(C)c3)c(=O)c2=O)cc1 -2.12%
CN(C)c1ccc(CNC(=O)CN(C)S(=O)(=O)c2ccc3c(c2)c(=O)n(C)c(=O)n3C)cc1 -17.1%
Cc1ccc(-n2nc3c(N4CCCC(C(=O)NCCc5ccccc5)C4)nnc(C)c3c2C)cc1 (configuration not stated) -4.55%
COc1cccc(C(=O)Nc2c(C(=O)NC(C)(C)C)oc3ccccc23)c1 -4.45%
CCc1cccc(NC(=O)Cn2c(=O)n(CCc3ccc(OC)c(OC)c3)c(=O)c3ccccc32)c1 -12.2%
O=C(Cn1ncc2c(=O)oc3ccccc3c21)NCc1ccccc1Cl -18.9%
CCOC(=O)Cn1cccc1-c1nc(-c2ccc(OC)cc2)c(-c2ccc(OC)cc2)s1 -6.6%
CCOC(=O)c1c(C)[nH]c(C)c1S(=O)(=O)N1CCCC(C(=O)Nc2ccc(OC)c(Cl)c2)C1 (configuration not stated) -15.1%
COc1cc(OC2CCN(C)CC2)ccc1Nc1ncc2c(n1)n(C1CCCC1)c(=O)n2C -26.7%
O=C(Cn1ncc2c3ccccc3n(Cc3ccccc3F)c2c1=O)NCCc1ccc(Cl)cc1 -12.2%
COc1cccc(CNC(=O)CSc2c3c(nc4ccc(Cl)cc24)CCCC3)c1OC -12.6%
CC1=C(C(=O)Nc2ccc(C)cc2C)C(c2ccc(Cl)cc2)n2nc(C(=O)OC(C)C)nc2N1 (configuration not stated) -6.94%
O=C(Cn1cnc(S(=O)(=O)N2CCCC2)c1)Nc1ccc(OC(F)(F)F)cc1 -18.1%
CCc1ccc(NC(=O)c2cc3sc(Cl)cc3n2C)cc1 41.9%
Cc1ccccc1Nc1nnc(-c2ccc(C)c(S(=O)(=O)N3CCOCC3)c2)c2ccccc12 -18.4%
COc1ccc(CN2COc3ccc4c(-c5ccccc5)cc(=O)oc4c3C2)cc1 -11.1%
Cc1cccc(N2CCN(C(=O)C3CCN(S(=O)(=O)c4cccs4)CC3)CC2)c1C -25.9%
COc1ccc(OC)c(NC(=O)Cn2cnc3c(oc4ccccc43)c2=O)c1 15%
CCOC(=O)c1cc(-c2ccccc2)n(CC(=O)Nc2ccc(OC)cc2OC)c1C -15.7%
CCOc1ccc(NC(=O)C2CCN(S(=O)(=O)c3cc(-c4noc(C)n4)ccc3C)CC2)cc1 -10.5%
CSc1cccc(-c2nnc(NC(=O)c3ccc4c(c3)OCCO4)o2)c1 -18.6%
CC(C)CC(=O)NCc1nc2cccnc2n1Cc1ccccc1 -2.22%
CCOC(=O)c1nc(Nc2ccc(C(=O)OCC(C)C)cc2)c2ccccc2n1 -15.5%
Cc1ccc2oc(C(=O)N(Cc3cccc(F)c3)C3CCS(=O)(=O)C3)c(C)c2c1 (configuration not stated) -15.9%
COc1ccc(N2CCN(C(=O)c3cc(S(=O)(=O)N4CCCCCC4)cn3C)CC2)cc1 -15.5%
COc1ccc(-c2cc(=S)ss2)cc1 6.24%
O=C(NCc1ccccc1Cl)C1CCC(CNS(=O)(=O)c2ccc(Cl)cc2)CC1 (configuration not stated) -4.37%
COc1cccc(NC(=O)N2CCC(n3c(C)nc4cccnc43)CC2)c1 -14.8%
COc1cccc(Cn2c(=O)n(-c3ccc(C)c(F)c3)c(=O)c3sc4ccccc4c32)c1 -13.7%
Cc1ccc(-c2cc(C(F)(F)F)n3nc(-c4ccc(Cl)cc4)cc3n2)cc1 -16.2% [at 11.5 µM]
COc1ccc(CNC(=O)C2CCN(Cc3nc(-c4ccc(OC)c(OC)c4)oc3C)CC2)cc1 2.33%
COc1cccc(OC)c1C(=O)Nc1nnc(C)s1 -13.8%
O=C(COC(=O)C(Cc1c[nH]c2ccccc12)NC(=O)c1ccc(Br)cc1)c1ccc(Cl)cc1 (configuration not stated) -22.9%
Cc1cc(C(C)(C)C)c(O)c(C(C)(C)C)c1 3.11%
COc1ccccc1N1CCN(C(=O)c2sc3nc4n(c(=O)c3c2C)CCC4)CC1 0.937%
CCOc1ccc(C(=O)c2cn(Cc3ccccc3OC)c3cc4c(cc3c2=O)OCCO4)cc1 6.98%
CCCCN(CC)CCNC(=O)c1cn(CCOC)c(=O)c2c1c1ccccc1n2C -6.25%
O=C(NC1CC(=O)N(c2cccc(F)c2)C1)c1ccc(S(=O)(=O)N2CCOCC2)cc1 (configuration not stated) -0.623%
COc1ccccc1CN1COc2ccc3c(C)cc(=O)oc3c2C1 -20.7%
CCOC(=O)c1ccc(NC(=O)CSc2ccc(-c3sc(C)nc3C)nn2)cc1 -21.5%
COc1ccc(Cn2ccc3nc(C)c(C(=O)N4CCN(c5ccccc5)CC4)cc3c2=O)cc1 -0.678%
COc1ccc(C(=O)c2oc3ccccc3c2NC(=O)c2ccc(F)cc2)cc1 1.68%
O=C(c1cn(CCOc2ccccc2F)c2ccccc12)C1CCCCC1 -16.5%
CCOC(=O)c1ccc(NC(=O)c2cn(-c3ccccc3)nc2-c2ccc(Br)cc2)cc1 -1.69%
CN/C(=C\[N+](=O)[O-])NCCSCc1ccc(CN(C)C)o1 -4.19%
COc1ccc(NC(=O)CSc2oc(-c3cccs3)nc2S(=O)(=O)c2ccc(Br)cc2)c(OC)c1 -8.92%
Cc1cccc(Cn2cc(C(=O)c3ccccc3)c(=O)c3cc4c(cc32)OCO4)c1 -17.1%
Cc1ccc(Nc2sc(C(=O)c3ccccc3)c(N)c2C(=O)NC(C)C)cc1 -15.8%
CCc1nonc1NC(=O)c1oc2cc(C)c(Cl)cc2c1C -21.5%
Cc1ccc(CCNC(=O)CN2C(=O)COc3ccc(S(=O)(=O)N4CCCCC4)cc32)cc1 -18.2%
Cc1ccc(Nc2nnc(-c3ccc(C)c(S(=O)(=O)N4CCCCC4)c3)c3ccccc23)cc1 15.7%
CCOc1ccc2c(c1)[C@@H]1C=CC[C@@H]1[C@H](c1ccccc1Cl)N2 -18.3%
COc1ccc(OC)c(NCc2cccn2-c2nnc(N3CCC(C)CC3)s2)c1 -17.5%
CC(C)(C)OC(=O)N1CCC(c2c(C(=O)Nc3ccc4c(c3)OCCO4)cnn2-c2ccc(F)cc2)CC1 -13.5%
Cc1ccc(CNC(C)c2ccccc2)s1 (configuration not stated) 4.65%
Cc1cccc(-c2nc3c(cnn3-c3ccccc3)c(=O)n2-c2cccc(Cl)c2)c1 -36.2%
CCN(CC)S(=O)(=O)c1ccc2c(c1)c(=O)c(C(=O)N(C)Cc1ccccc1)cn2C 5.77%
Cc1ccc(C)c(NC(=O)CCCN2C(=O)COc3ccc(C)cc32)c1 -29.3%
Cc1cc(C)cc(NC(=O)CSc2nnc(COc3ccccc3Cl)o2)c1 -8.44%
CC(C)(C)OC(=O)N1CCC(c2c(C(=O)Nc3cccc(C(F)(F)F)c3)cnn2-c2ccc(F)cc2F)CC1 -22.7%
Cn1cnc2c(=O)oc3ccc(S(=O)(=O)N4CCN(c5ccccc5)CC4)cc3c21 -0.831%
COc1ccc(C)cc1NC(=O)c1cc2c(s1)-c1ccccc1SC2 -4.11%
CC1CCN(S(=O)(=O)c2ccc3ncn(CC(=O)Nc4ccccc4C(F)(F)F)c(=O)c3c2)CC1 -29%
CCOC(=O)C1CCN(C(=O)CSc2n[nH]c(-c3ccccc3Cl)n2)CC1 1.64%
CN(C)c1ccc(C(CNC(=O)Cc2ccc(Cl)cc2)N2CCOCC2)cc1 (configuration not stated) -22.1%
CC(C)OC(=O)c1cc2c(OCC(O)CNC(C)(C)C)cccc2[nH]1 (configuration not stated) -0.443%
CCCn1c2ccccc2c2cnn(CC(=O)Nc3cccc(C(=O)OCC)c3)c(=O)c21 -20.4%
CCOc1ccc(CNC(=O)CN2C(=O)CCn3nc(-c4cn(C)c5ccccc45)cc32)cc1OC -0.741%
CCOc1ccc(NC(=O)CSc2cc(C)c3ccccc3n2)cc1 -2.17%
COc1ccc(CCNC(=O)Cc2c(C)c3c(cc(C)c4c(C)c(C)oc43)oc2=O)cc1OC 3.73%
Cc1ccc(S(=O)(=O)c2nc(-c3ccco3)oc2SC(C)C)cc1 -27.4%
CN1CC(=O)N/C1=N/C(=O)Nc1cccc(Cl)c1 32.8%
